Common to all, as to assay: BLI
In general terms: In BLI a coated tip is dipped into the sample, and binding shifts an interference pattern.

Assay [1] addresses P1174_IXORI (Ixodes ricinus, UniProt V5I3C5 28-104).
In assay [2] the target is P1128_IXORI (Ixodes ricinus, UniProt A0A0K8R6B3 19-90).
The target of assay [3] is P1162_IXORI (Ixodes ricinus, UniProt A0A0K8RDJ1 29-99).
In assay [4] the target is P1096_IXORI (Ixodes ricinus, UniProt A0A0K8RKE4 24-114).
The target of assay [5] is P1168_IXORI (Ixodes ricinus, UniProt A0A0K8RCU3 25-106).
In assay [6] the target is P1127_IXORI (Ixodes ricinus, UniProt A0A0K8RJ67 29-108).
The target in assay [7] is P1166_IXORI (Ixodes ricinus, UniProt A0A0K8RE99 25-110).
Assay [8] deals with P1095_IXORI (Ixodes ricinus, UniProt A0A0K8RCE3 24-112).
Assay [9] deals with P1229_IXORI (Ixodes ricinus, UniProt A0A0K8R4R9 32-108).
Assay [10] deals with P1132_IXORI (Ixodes ricinus, UniProt V5GZ08 29-106).
In assay [11] the target is P1156_IXORI.

B1: CXCL8 (ligand)
chain: not shown
In the case of B1, the Kd in [1] was found to be 81.7 nM; in assay [2], 2.3 nM; in assay [3], 12.2 nM; in assay [4], 44.7 nM; in [5], 20.7 nM; in assay [6], 13.3 nM. The Kd is 129 nM in assay [7]; 110 nM in assay [8]; 30.7 nM in assay [9]; 32.8 nM in assay [10]; 2.9 nM in assay [11].

Broadly, the Kd is the free concentration of one partner at which half of the binding sites on the other are occupied at equilibrium, for simple one-to-one binding.

The record behind these values is paper PMC6643034 (2019).
